Assay results: PubChem BioAssay AID938 (National Center for Advancing Translational Sciences (NCATS), 2007)
The whole screen tested about 73,000 compounds, of which about 1,800 (2.5%) were called active. The shares of active, inactive and inconclusive entries below differ from those in the screen. The call rests on the fitted dose curve; in most records, active means well fitted activation curve with a large enough effect; inconclusive means small, poorly fitted or top-dose-only effect; inactive means no such curve, though single readings can be large or run the other way. No potency is given beside an inconclusive call; the fits are too rough.

test: qHTS Assay for Agonists of the Thyroid Stimulating Hormone Receptor: Activators of Intracellular cAMP Concentrations in Parental HEK 293; details: parental HEK293 CNG cAMP sensor, membrane potential fluorescence; activation: at 57.1 µM (top of the series) unless noted; further: nearly all actives have a fitted effect of over 55% in size; on activation: % of control where 0% means no effect
Method in brief: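 Parental HEK 293 cells stably expressing a cAMP-gated CNG channel were loaded with membrane potential dye containing 100 uM RO 20-1724 for 60 min. Compound added for 30 min; depolarization read as fluorescence intensity at 590 nm.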
Potency means the concentration at half of the fitted maximal effect; tags describe the fitted curve by direction and shape.

| SMILES | Potency | activation |
| --- | --- | --- |
| Cn1c(SCC(=O)N2CCCCC2)nc2cccnc21 | inconclusive [activator, single point] | – |
| Cc1ccc(NC(=O)CSc2nc3ccccc3c(=O)n2CCCC(=O)N2CCCC2)cc1 | inconclusive [activator, single point] | – |
| COc1ccc(-c2cc(CCCC(=O)NCCc3cc(OC)ccc3OC)no2)cc1 | active: 31.6 µM | – |
| CC1CN(c2nnnn2-c2ccccc2)CC(C)O1 (configuration not stated) | inconclusive [activator, single point] | – |
| O=C(CN(Cc1ccco1)C(=O)Cn1nnc(-c2cccs2)n1)NCc1ccccc1 | inconclusive [activator, partial curve] | – |
| Cc1ccc(C(c2nnnn2C(C)(C)C)N2CCN(C3CCCC3)CC2)cc1 (configuration not stated) | inconclusive [activator, partial curve] | – |
| Cc1c(C(=O)NCc2ccccn2)sc2nc(-c3ccccc3)cn12 | inconclusive [activator, single point] | – |
| O=C(NC1c2ccccc2-c2ccccc21)N1CCCCC1 | active: 3.16 µM | – |
| COc1ccc(-c2nnc(CSc3nc4ccccc4c(=O)n3CC3CCCO3)o2)cc1OC (configuration not stated) | inconclusive [activator, full curve] | – |
| COc1ccc(N2CCC(CNS(=O)(=O)c3cccc(C(F)(F)F)c3)C2)cc1 (configuration not stated) | inactive | – |
| CCOC(=O)N1CCN(S(=O)(=O)c2ccc(C)cc2)C1c1ccc(OC)cc1 (configuration not stated) | inconclusive [activator, partial curve] | – |
| CN1CCN(c2ncnc3ccc(-c4ccccc4C(F)(F)F)cc23)CC1 | inconclusive [activator, partial curve] | – |
| O=C(CN1C(=O)c2ccccc2C1=O)Nc1nnc(C2CCCO2)s1 (configuration not stated) | inconclusive [activator, full curve] | – |
| O=C(c1ccc(COc2ccc3c(c2)CCC3)o1)N1CCN(c2ccccc2)CC1 | inconclusive [activator, partial curve] | – |
| c1ccc(-c2nnc(CSc3nnc(-c4cccs4)o3)o2)cc1 | inactive | – |
| O=c1c(-c2cccs2)nc2cncnc2n1-c1ccccc1 | active: 25.1 µM | – |
| COc1ccc(Nc2nc(N)nc(SCc3nnc(C)s3)n2)cc1 | inactive | – |
| CCN(CC)C(c1ccc(C)cc1)c1nnnn1C1CCCCC1 (configuration not stated) | active: 15.8 µM | – |
| Cc1cc(C(=O)Nc2cccnc2)no1 | inactive | – |
| CCCOc1nc(N)c(C#N)c(-c2ccccc2F)c1C#N | inactive | – |
| CCNc1ncc2nc(-c3ccccc3)c(=O)n(-c3ccc(OC)cc3)c2n1 | inconclusive [activator, single point] | – |
| CC1=Nn2c(nnc2-c2ccccn2)SC1 | inconclusive [activator, partial curve] | – |
| CCOC(=O)C(C)Sc1nc2c([nH]c3ccccc32)c(=O)n1C (configuration not stated) | inconclusive [activator, single point] | – |
| C[C@@H](c1ccccc1)N1C(=O)[C@H]2[C@H]3[C@H](O)[C@H](O)C/C(=N/OC[C@@H](O)COCc4ccco4)[C@H]3CC[C@@H]2C1=O | – | inactive: 0.939% [at 11.4 µM] |

| SMILES | Potency | activation |
| --- | --- | --- |
| CCC(c1nnnn1Cc1cccs1)N1CCN(c2nc3ccccc3s2)CC1 (configuration not stated) | active: 31.6 µM | – |
| Cc1ccc(Cn2c(Sc3ncccn3)nc3c2c(=O)[nH]c(=O)n3C)cc1 | inactive | – |
| Cc1ccccc1OCCCCc1c(C)n[nH]c1C | inconclusive [activator, partial curve] | – |
| CCn1c(C(=O)Nc2ccsc2C(=O)OC)cc2sc(Cl)cc21 | inconclusive [activator, single point] | – |
| CCCN(CCC)C(=O)C1c2ccccc2Oc2ccccc21 | active: 12.6 µM | – |
| O=C(CN1CCC(c2nc3ccccc3[nH]2)CC1)Nc1ccc2c(c1)OCO2 | inactive | – |
| O=C1c2ccccc2C(Nc2ccc3c(c2)OCO3)N1Cc1ccc2c(c1)OCO2 (configuration not stated) | inconclusive [activator, partial curve] | – |
| CCOC(=O)C1=C(C)NC(=O)NC1C1CC=CCC1 (configuration not stated) | inactive | – |
| Cn1nc(-c2ccc(Cl)cc2)c2cc(C(=O)NCc3ccco3)sc21 | inconclusive [activator, single point] | – |
| CCCCCn1c(SCC(=O)OCC)nc2cc(C(=O)NCc3ccco3)ccc2c1=O | inconclusive [activator, partial curve] | – |
| Cc1ccc(NC(=O)C2CCCN2S(=O)(=O)c2cccc3cccnc23)cc1F (configuration not stated) | inconclusive [activator, single point] | – |
| O=S1(=O)C=CC(N2CCOCC2)C1 (configuration not stated) | inactive | – |
| N=C(N)CCNC(=O)[C@@H]1CCC(N)=N1 | – | inactive: 6.5% [at 11.4 µM] |
| CN(C)c1nc(Oc2ccc(=O)n(-c3ccccc3)n2)nc(N2CCOCC2)n1 | inconclusive [activator, single point] | – |
| CCC1CCCCN1S(=O)(=O)c1ccc(S(=O)(=O)N(Cc2cccs2)C2CC2)cc1 (configuration not stated) | inconclusive [activator, partial curve] | – |
| CNC(=O)c1ccc(Oc2ccc(C(=O)NC)cc2)cc1 | inconclusive [activator, partial curve] | – |
| COc1ccc(C(=O)NCCn2ccc3ccccc32)cc1OC | inconclusive [activator, single point] | – |
| NCCNC[C@H](O)CO | – | inactive: -3.38% [at 11.4 µM] |
| CCOC(=O)c1ccccc1NC(=O)CSc1nnnn1C1CCCCC1 | active: 31.6 µM | – |
| CC(C)OCCCNc1ncnc2c1[nH]c1ccc(F)cc12 | inconclusive [activator, partial curve] | – |
| CC(C)[C@@H](CC(=O)N[C@@H]1CCNC[C@H]1C(=O)N[C@H](CC(=O)N[C@@H](CCC(=O)O)CC(=O)O)Cc1c[nH]c2ccccc12)NC(=O)C[C@H](CO)NC(=O)[C@@H]1CCCC[C@H]1N | inactive | – |
| COc1ccc(Cc2nnc(SCC(=O)c3ccc(OC)cc3)o2)cc1 | active: 31.6 µM | – |
| CCOc1ccccc1N(C(=O)c1ccco1)C(C(=O)NC1CCCC1)c1cccnc1 (configuration not stated) | inconclusive [activator, partial curve] | – |
